Consider ten compounds from PubChem BioAssay (NCATS).

Assay [1] in a line: qHTS Assay for Lipid Storage Modulators (AID 1519). The settings on record: Drosophila S3 cells, BODIPY lipid droplet/cell ratio, laser cytometry, cells loaded with oleic acid. The method, boiled down: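 Cells seeded at 5,000 per well were treated with compounds over a concentration series and loaded with oleic acid (400 uM, as added). Lipid droplet fluorescence (488 nm excitation, 500-530 nm channel) was read by laser-scanning cytometry and normalized to 20 uM Triacsin C.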
Background: Quantitative high-throughput screening tests each substance at several concentrations.

Assay [2] is described as follows: qHTS Assay for Modulators of Human Peripheral Myelin Protein 22 (PMP22) Expression/Activity (AID 1967). The conditions noted are these: Cell-based PMP22 reporter, dual-color luciferase ratio. In outline:
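Mouse MSC80 Schwann cells carrying Pmp22 promoter–green click beetle luciferase plus EF-alpha–red luciferase control, dosed 24 h at 37 °C. Dual-filter luminescence, overlap-corrected; %Activity from green/red ratio normalised to untreated cells, concentration-response curves fitted.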

Assay [3] can be described thus: qHTS Validation Assay to Find Inhibitors of Chronic Active B-Cell Receptor Signaling (AID 485345). The conditions noted are these: ABC-DLBCL cells, chronic BCR signaling reporter. In outline: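 TMD8 ABC-DLBCL cells stably carrying doxycycline-inducible IkappaBalpha–green luciferase fusion plus unfused red luciferase; compounds 46 uM to 3 nM, 4 h at 37C with doxycycline. Corrected green/red luminescence ratio normalized to 10 uM MG-132 and basal cell wells; curves fitted.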

A short description of assay [4]: qHTS for identification of novel therapeutic agents for treatment of microphthalmiaassociated transcription factor (MiT) renal cell carcinoma (RCC) (AID 1963991). The settings on record: CellTiter-Glo, 48 h; for z-score: stronger effect = lower value. The method, boiled down: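 Three TFE3-fusion RCC lines (UOK109, UOK124, UOK145), 500 cells/well in complete medium, were treated with MIPE 4.0 compounds for 48 hours at 37 C. Viability was by CellTiter-Glo luminescence, normalized to DMSO (100%) and empty wells (0%); curves fitted over 11 concentrations.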

Assay [5] can be described thus: S16 Schwann cell PMP22 intronic element beta-lactamase assay (AID 624044). Note: nearly all actives have a fitted effect of over 15% in size. The conditions noted are these: S16 rat Schwann cells, PMP22 element beta-lactamase FRET, 24 h. In outline:
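Rat S16 Schwann cells with beta-Lac driven by a PMP22 intronic element, compound-treated 24 h at 37 °C. LiveBLAzer FRET B/G read: 460 nm normalized to potassium clavulanate vs DMSO; 535 nm FRET as viability; concentration-effect curves classified.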

The nature of assay [6]: A High-Content qHTS Against Drug Library for the Identification of Small Molecules that Inhibit DYT1 Early Onset Primary Dystonia-Associated Cell Pathology (AID 1645839). The conditions noted are these: HEK293 Flp-In EGFP-delE TorsinA, punctate imaging, 48 h; measured here: cell count cytotoxicity. In outline: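 Flp-In T-REx 293 cells with tetracycline-inducible EGFP-delE hTOR1A (WT EGFP-hTOR1A as reference), 800 cells/well; compound added with tetracycline, 48 h at 37 C. Fixed, permeabilized cells imaged; %pathology (punctate TorsinA) primary, cell count counterscreen.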

The nature of assay [7]: Nrf2 qHTS screen for inhibitors: Validation (AID 493153). The settings on record: A549 ARE-Fluc reporter, 18-24 h; AC50: CellTiter-Fluor fluorescence read, measured here: cytotoxicity CellTiter-Fluor AC50; viability change: measured here: cytotoxicity max response. In outline:
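Dose-response validation uses reporter A549 cells with firefly luciferase under an antioxidant response element. Compounds stay on cells 18-24 h at 37°C, and luminescence indicates Nrf2-driven transcription.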

Assay [8] can be described thus: qHTS assay for small molecule antagonists of peroxisome proliferator-activated receptor gamma signaling (AID 588537). The settings on record: HEK293 PPARg-UAS-bla, beta-lactamase ratio, antagonist mode; measured here: W460 blue channel. The method, boiled down: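 Step one: plate 3000 HEK293 UAS-bla cells per well in medium with 1% stripped serum and hold 6-6.5 h at 37 C. Step two: add compound and 50 nM agonist for 16 h. Step three: CCF4 loading, fluorescence read.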

The target of assay [9] is Histamine N-methyltransferase (Homo sapiens) (UniProt P50135). Briefly: Confirmatory Screen for Target Class Profiling of Small Molecule Inhibitors of Methyltransferases (AID 1745852).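 Note: inhibitor potency for blocking SAH production.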 The settings on record: MTase-Glo luminescence, SAH detection, recombinant enzyme; measured here: HNMT inhibition potency.
[10] abbreviates: measured here: cell count channel max response.
Where [11] appears, read: measured here: cell number channel AC50.
Where [12] appears, read: measured here: lipid (BODIPY) channel AC50.
Setting [13] is: measured here: lipid channel max response.
[14] abbreviates: measured here: green reporter channel AC50, mouse Pmp22 promoter in mouse Schwann cells.
Setting [15] is: measured here: red reporter channel AC50, EF-alpha promoter control reporter in MSC80 mouse Schwann cells.

Several values for one entry are separate records, joined by “and”; a condition that tells them apart may be missing. Identical values can stand only once. This is one part of the list. The main result of the screen is listed elsewhere. These columns were measured beside it and carry no call. Compounds called inactive in the main read-out are mostly missing here. Words in brackets tell the shape of the fitted curve; partial curves, single points and poor fits give uncertain potencies.
Tags give direction and shape of the fitted curve.

UniProt P50135, sequence (P50135 whole entry, looked up): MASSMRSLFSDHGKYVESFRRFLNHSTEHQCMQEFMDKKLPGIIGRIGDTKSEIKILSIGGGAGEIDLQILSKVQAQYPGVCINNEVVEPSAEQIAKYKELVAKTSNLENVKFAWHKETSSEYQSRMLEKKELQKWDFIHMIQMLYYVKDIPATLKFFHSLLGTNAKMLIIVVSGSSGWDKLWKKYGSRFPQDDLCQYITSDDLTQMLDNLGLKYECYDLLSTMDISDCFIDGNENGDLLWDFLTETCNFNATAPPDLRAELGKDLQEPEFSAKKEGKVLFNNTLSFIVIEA

Regarding `COc1ccc2c3c([nH]c2c1)C(C)=NCC3`, the max response in [1] (setting [10]) is 8.85% and 113%; in [1] (setting [13]), -31.4% and 144%. The half-maximal activity concentration (AC50) in [1] (setting [11]) is 17.8 µM [rising, partial curve, poor fit]; in assay [1] (setting [12]), 20 µM [falling, single point] and 17.8 µM [rising, partial curve, poor fit].
For `C(=C/c1ccccc1)/CN1CCN(CCOC(c2ccccc2)c2ccccc2)CC1`, the max response in assay [1] (setting [10]) was found to be 46.5%; in [1] (setting [13]), 31.6%. Moreover, the half-maximal activity concentration (AC50) in assay [1] (setting [11]) was 7.94 µM [rising, full curve, poor fit]; in assay [1] (setting [12]), 5.62 µM [rising, full curve, poor fit].
Regarding `CC(=O)NBr`, the values for the max response in assay [1] (setting [10]) and in [1] (setting [13]) were 46.2% and 46.1%, respectively. In addition, the AC50 was 39.8 µM [rising, single point] in assay [1] (setting [11]) and 39.8 µM [rising, single point] in assay [1] (setting [12]).
On to `CC(C)[C@@]1(NC(=O)[C@@H]2C[C@@H]3c4cccc5[nH]cc(c45)C[C@H]3N(C)C2)O[C@@]2(O)[C@@H]3CCCN3C(=O)[C@H](Cc3ccccc3)N2C1=O`, for which the max response was determined as 58% in [1] (setting [10]) and 51.5% in assay [1] (setting [13]). Also, the AC50 was 5.01 µM [rising, full curve] in assay [1] (setting [11]) and 3.16 µM [rising, full curve, poor fit] in assay [1] (setting [12]).
In the case of `COC[C@H]1OC(=O)c2coc3c2[C@@]1(C)C1=C(C3=O)C2CCC(=O)[C@@]2(C)C[C@H]1OC(C)=O` (stereo partly drawn), the figures for the max response in assay [1] (setting [10]) and in [1] (setting [13]) were -86.6% and -87.3%, respectively. For the same compound, the half-maximal activity concentration (AC50) is 22.4 µM [falling, partial curve] in [1] (setting [11]); 22.4 µM [falling, partial curve, poor fit] in assay [1] (setting [12]); 26.9 µM [falling, full curve] in assay [2] (setting [14]); 37.9 µM [falling, partial curve] in assay [2] (setting [15]); 0.326 µM [falling, full curve] in [3] (measured here: CBG/CBR ratio read-out); 4.11 µM [rising, full curve] in [3] (measured here: CBR control luciferase (viability counter)). In [4] (TFE3-RCC viability, measured here: UOK145 cell viability), the half-maximal activity concentration (AC50) is 8.33 µM [falling, partial curve]. Moreover, the z-score in assay [4] (TFE3-RCC UOK109 viability, measured here: UOK109 Z-AUC) is -0.0779; in assay [4] (TFE3-RCC viability, measured here: UOK124 Z-AUC), 0.269; in assay [4] (TFE3-RCC viability, measured here: UOK145 Z-AUC), 0.055.
As to `Oc1ccc2[nH]cc(CCCCN3CC=C(c4ccccc4)CC3)c2c1`, the max response in [1] (setting [10]) is 30.7%; in [1] (setting [13]), 38.1%. In addition, the AC50 was 1.26 µM [rising, full curve, poor fit] in assay [1] (setting [11]); 39.8 µM [rising, single point] in assay [1] (setting [12]); 12.6 µM [falling, full curve, poor fit] in assay [5] (measured here: 460 nm blue channel); 0.0631 µM [falling, full curve] in assay [5] (measured here: 530 nm viability channel); 8.91 µM [falling, partial curve] in [6].
`O=C(CCCN1CCC2(CC1)C(=O)NCN2c1ccccc1)c1ccc(F)cc1`: the max response was 43.9% and -36.1% in [1] (setting [10]); 57.4% and -37.2% in assay [1] (setting [13]). For the same compound, the AC50 is 11.2 µM [rising, partial curve] and 126 nM [falling, full curve, poor fit] in assay [1] (setting [11]); 14.1 µM [rising, partial curve, poor fit] in assay [1] (setting [12]); 75.7 µM [falling, single point] in assay [2] (setting [14]); 84.9 µM [falling, single point] in assay [2] (setting [15]); 16.4 µM [falling, partial curve, poor fit] in assay [7]; 3.16 µM [falling, single point] in [6]. Also, the viability change in [7] was -26%.
Turning to `COc1cc2c(cc1OC)-c1c(O)c(OC)cc3c1[C@H](C2)N(C)CC3`, the max response in [1] (setting [10]) was found to be 77%; in [1] (setting [13]), 97.8%. The half-maximal activity concentration (AC50) in assay [1] (setting [11]) was 14.1 µM [rising, partial curve]; in assay [1] (setting [12]) it was 17.8 µM [rising, partial curve, poor fit].
As for `C=C(C)C1Cc2c(ccc3c2OC2COc4cc(OC)c(OC)cc4C2C3=O)O1` (stereo not drawn), the max response in [1] (setting [10]) is -26.5%; in assay [1] (setting [13]), -90.6%. Also, the concentration at half-maximal activity (AC50) in assay [1] (setting [11]) is 0.316 µM [falling, full curve, poor fit]; in assay [1] (setting [12]), 0.282 µM [falling, full curve].
Turning to `NCCc1ccc(O)cc1`, the max response was 16.5% and -21.7% in assay [1] (setting [10]); 31.6% and -22.8% in [1] (setting [13]). Also, the AC50 is 14.1 µM [falling, partial curve, poor fit] in assay [1] (setting [11]); 39.8 µM [rising, single point] and 14.1 µM [falling, partial curve, poor fit] in assay [1] (setting [12]); 50.1 µM [rising, single point] in assay [8]. Also, the half-maximal inhibitory concentration (IC50) in [9] is 0.485 µM [falling, full curve].

Usually AC50 stands for the concentration at which the activity in the assay is half-maximal. What is called IC50 is the midpoint of a concentration-inhibition curve.
